Test results reported in patent US9266939B2, “Compositions comprising natriuretic peptides and methods of use thereof” (Alexion Pharmaceuticals, Inc., priority 2010, dated 2016).
Marks after values point to notes of the source that are not given here.

Tested on: wild-type (CD-1) mice
Test: Weekly bolus SC injection of NC2B on bone growth in wild-type (CD-1) mice
Assay type: in vivo
Details: for Crown-rump length in vivo (ruler) / Crown-rump length in vivo (ruler), % Δ compared to Vehicle / Crown-rump length in vivo (ruler), Δ compared to Vehicle / Left Femur length, % Δ compared to Vehicle / Left Femur length, Δ compared to Vehicle / Left Humerus length, % Δ compared to Vehicle / Left Humerus length, Δ compared to Vehicle / Left Tibia length, % Δ compared to Vehicle / Left Tibia length, Δ compared to Vehicle / Left Ulna length, % Δ compared to Vehicle / Left Ulna length, Δ compared to Vehicle / Naso-anal length (X-Ray) / Naso-anal length (X-Ray), % Δ compared to Vehicle / Naso-anal length (X-Ray), Δ compared to Vehicle / Tail length in vivo (ruler) / Tail length in vivo (ruler), % Δ compared to Vehicle / Tail length in vivo (ruler), Δ compared to Vehicle / Total CTL (cervical, thoracic, and lumbar) segments (X-Ray) / Total CTL segments (X-Ray), % Δ compared to Vehicle / Total CTL segments (X-Ray), Δ compared to Vehicle: day 36; for Left Femur length / Left Humerus length / Left Tibia length / Left Ulna length: day 36, caliper at necropsy
Method: The study was designed to evaluate the effect of weekly subcutaneous (SC) administration of NC2B on bone growth in wild-type (WT) mice.
CD-1 mice are a standard rodent species for use in pharmacodynamic studies, and these mice are described above in Example 14.
The animals received NC2B as a subcutaneous injection into the interscapular region as described in Table 18 below.
CD-1 mice were treated at 3 weeks old at the indicated doses for 35 consecutive days, followed by necropsy 24 hours after the last injection.
Experiments were conducted as described above in Example 14.
Experimental results are shown in FIGS. 44A-44B and are summarized in Table 19 (results at day 36) below. Data in Table 19 were obtained at necropsy with a caliper, unless otherwise noted.

[1] = Tx-30-QD: 30 mg/kg SC once daily, 35 days
[2] = Tx-30-QW: 30 mg/kg SC once weekly, 35 days
[3] = Tx-100-5QD: 100 mg/kg SC once daily 5 days, then 30 days recovery
[4] = Tx-100-QW: 100 mg/kg SC once weekly, 35 days
[5] = Tx-200-QW: 200 mg/kg SC once weekly, 35 days

B1: NC2B: NC2st without the sequence N-terminal to the Fc domain; SEQ ID NO: 504 (protein)
chain: [not shown - human IgG1 Fc]GGGGSGGGGSGGGGSGGLSKGCFGLKLDRIGSMSGLGC
modifications: Synthetic Construct (NC2B (w/o sig. seq.))
Crown-rump length in vivo (ruler) [1]: 106* mm | Crown-rump length in vivo (ruler), % Δ compared to Vehicle [1]: 8.3% | Crown-rump length in vivo (ruler), Δ compared to Vehicle [1]: 8.1 mm | Left Femur length, % Δ compared to Vehicle [1]: 8.0% | Left Femur length, Δ compared to Vehicle [1]: 1.2 mm | Left Humerus length, % Δ compared to Vehicle [1]: 4.9% | Left Humerus length, Δ compared to Vehicle [1]: 0.6 mm | Left Tibia length, % Δ compared to Vehicle [1]: 5.1% | Left Tibia length, Δ compared to Vehicle [1]: 0.9 mm | Left Ulna length, % Δ compared to Vehicle [1]: 6.4% | Left Ulna length, Δ compared to Vehicle [1]: 0.9 mm | Naso-anal length (X-Ray) [1]: 120* mm | Naso-anal length (X-Ray), % Δ compared to Vehicle [1]: 11.1% | Naso-anal length (X-Ray), Δ compared to Vehicle [1]: 12 mm | Tail length in vivo (ruler) [1]: 109* mm | Tail length in vivo (ruler), % Δ compared to Vehicle [1]: 10.0% | Tail length in vivo (ruler), Δ compared to Vehicle [1]: 9.9 mm | Total CTL (cervical, thoracic, and lumbar) segments (X-Ray) [1]: 57.9* mm | Total CTL segments (X-Ray), % Δ compared to Vehicle [1]: 13.5% | Total CTL segments (X-Ray), Δ compared to Vehicle [1]: 6.9 mm | Left Femur length [1]: 16.2* mm | Left Humerus length [1]: 12.8* mm | Left Tibia length [1]: 18.7* mm | Left Ulna length [1]: 14.9* mm | Crown-rump length in vivo (ruler) [2]: 103* mm | Crown-rump length in vivo (ruler), % Δ compared to Vehicle [2]: 5.2% | Crown-rump length in vivo (ruler), Δ compared to Vehicle [2]: 5.1 mm | Left Femur length, % Δ compared to Vehicle [2]: 4.0% | Left Femur length, Δ compared to Vehicle [2]: 0.6 mm | Left Humerus length, % Δ compared to Vehicle [2]: 3.3% | Left Humerus length, Δ compared to Vehicle [2]: 0.4 mm | Left Tibia length, % Δ compared to Vehicle [2]: 3.4% | Left Tibia length, Δ compared to Vehicle [2]: 0.6 mm | Left Ulna length, % Δ compared to Vehicle [2]: 2.9% | Left Ulna length, Δ compared to Vehicle [2]: 0.4 mm | Naso-anal length (X-Ray) [2]: 114*^# mm | Naso-anal length (X-Ray), % Δ compared to Vehicle [2]: 5.6% | Naso-anal length (X-Ray), Δ compared to Vehicle [2]: 6.0 mm | Tail length in vivo (ruler) [2]: 104* mm | Tail length in vivo (ruler), % Δ compared to Vehicle [2]: 4.9% | Tail length in vivo (ruler), Δ compared to Vehicle [2]: 4.9 mm | Total CTL (cervical, thoracic, and lumbar) segments (X-Ray) [2]: 54.4*^# mm | Total CTL segments (X-Ray), % Δ compared to Vehicle [2]: 6.7% | Total CTL segments (X-Ray), Δ compared to Vehicle [2]: 3.4 mm | Left Femur length [2]: 15.6*^# mm | Left Humerus length [2]: 12.6* mm | Left Tibia length [2]: 18.4* mm | Left Ulna length [2]: 14.4 mm | Crown-rump length in vivo (ruler) [3]: 101^# mm | Crown-rump length in vivo (ruler), % Δ compared to Vehicle [3]: 3.2% | Crown-rump length in vivo (ruler), Δ compared to Vehicle [3]: 3.1 mm | Left Femur length, % Δ compared to Vehicle [3]: 2.0% | Left Femur length, Δ compared to Vehicle [3]: 0.3 mm | Left Humerus length, % Δ compared to Vehicle [3]: 1.6% | Left Humerus length, Δ compared to Vehicle [3]: 0.2 mm | Left Tibia length, % Δ compared to Vehicle [3]: 3.4% | Left Tibia length, Δ compared to Vehicle [3]: 0.6 mm | Left Ulna length, % Δ compared to Vehicle [3]: 2.9% | Left Ulna length, Δ compared to Vehicle [3]: 0.4 mm | Naso-anal length (X-Ray) [3]: 112^# mm | Naso-anal length (X-Ray), % Δ compared to Vehicle [3]: 3.7% | Naso-anal length (X-Ray), Δ compared to Vehicle [3]: 4.0 mm | Tail length in vivo (ruler) [3]: 104*^# mm | Tail length in vivo (ruler), % Δ compared to Vehicle [3]: 4.9% | Tail length in vivo (ruler), Δ compared to Vehicle [3]: 4.9 mm | Total CTL (cervical, thoracic, and lumbar) segments (X-Ray) [3]: 53.0*^# mm | Total CTL segments (X-Ray), % Δ compared to Vehicle [3]: 3.9% | Total CTL segments (X-Ray), Δ compared to Vehicle [3]: 2.0 mm | Left Femur length [3]: 15.3^# mm | Left Humerus length [3]: 12.4^# mm | Left Tibia length [3]: 18.4* mm | Left Ulna length [3]: 14.4 mm | Crown-rump length in vivo (ruler) [4]: 103* mm | Crown-rump length in vivo (ruler), % Δ compared to Vehicle [4]: 5.2% | Crown-rump length in vivo (ruler), Δ compared to Vehicle [4]: 5.1 mm | Left Femur length, % Δ compared to Vehicle [4]: 4.0% | Left Femur length, Δ compared to Vehicle [4]: 0.6 mm | Left Humerus length, % Δ compared to Vehicle [4]: 3.3% | Left Humerus length, Δ compared to Vehicle [4]: 0.4 mm | Left Tibia length, % Δ compared to Vehicle [4]: 2.8% | Left Tibia length, Δ compared to Vehicle [4]: 0.5 mm | Left Ulna length, % Δ compared to Vehicle [4]: 2.9% | Left Ulna length, Δ compared to Vehicle [4]: 0.4 mm | Naso-anal length (X-Ray) [4]: 115*^# mm | Naso-anal length (X-Ray), % Δ compared to Vehicle [4]: 6.5% | Naso-anal length (X-Ray), Δ compared to Vehicle [4]: 7.0 mm | Tail length in vivo (ruler) [4]: 104* mm | Tail length in vivo (ruler), % Δ compared to Vehicle [4]: 4.9% | Tail length in vivo (ruler), Δ compared to Vehicle [4]: 4.9 mm | Total CTL (cervical, thoracic, and lumbar) segments (X-Ray) [4]: 54.5*^# mm | Total CTL segments (X-Ray), % Δ compared to Vehicle [4]: 6.9% | Total CTL segments (X-Ray), Δ compared to Vehicle [4]: 3.5 mm | Left Femur length [4]: 15.6*^# mm | Left Humerus length [4]: 12.6* mm | Left Tibia length [4]: 18.3 mm | Left Ulna length [4]: 14.4 mm | Crown-rump length in vivo (ruler) [5]: 104* mm | Crown-rump length in vivo (ruler), % Δ compared to Vehicle [5]: 6.2% | Crown-rump length in vivo (ruler), Δ compared to Vehicle [5]: 6.1 mm | Left Femur length, % Δ compared to Vehicle [5]: 5.3% | Left Femur length, Δ compared to Vehicle [5]: 0.8 mm | Left Humerus length, % Δ compared to Vehicle [5]: 3.3% | Left Humerus length, Δ compared to Vehicle [5]: 0.4 mm | Left Tibia length, % Δ compared to Vehicle [5]: 3.9% | Left Tibia length, Δ compared to Vehicle [5]: 0.7 mm | Left Ulna length, % Δ compared to Vehicle [5]: 2.1% | Left Ulna length, Δ compared to Vehicle [5]: 0.3 mm | Naso-anal length (X-Ray) [5]: 117* mm | Naso-anal length (X-Ray), % Δ compared to Vehicle [5]: 8.3% | Naso-anal length (X-Ray), Δ compared to Vehicle [5]: 9.0 mm | Tail length in vivo (ruler) [5]: 107* mm | Tail length in vivo (ruler), % Δ compared to Vehicle [5]: 8.0% | Tail length in vivo (ruler), Δ compared to Vehicle [5]: 7.9 mm | Total CTL (cervical, thoracic, and lumbar) segments (X-Ray) [5]: 55.9*^# mm | Total CTL segments (X-Ray), % Δ compared to Vehicle [5]: 9.6% | Total CTL segments (X-Ray), Δ compared to Vehicle [5]: 4.9 mm | Left Femur length [5]: 15.8* mm | Left Humerus length [5]: 12.6* mm | Left Tibia length [5]: 18.5* mm | Left Ulna length [5]: 14.3^# mm | bone growth (daily and weekly regimens, 35-day treatment period, wild-type mice): induced robust growth of almost all bone lengths
